In PubChem BioAssay AID1508623 (National Center for Advancing Translational Sciences (NCATS), 2021):
In all, about 48,000 compounds went through this assay and about 450 (0.94%) were called active. About 19% were inconclusive and are not listed. Calls come from the whole dose curve; as a rule, active = well fitted inhibition curve with a large enough effect; inconclusive = small, poorly fitted or top-dose-only effect; inactive = no such curve, though single readings can be large or run the other way. Some of the results follow.

Assay: Primary qHTS for Identification of Small Molecule Inhibitors of Huntingtin Promoter Activity; note: nearly all actives have a fitted effect of over 50% in size
Details: HEK293 HTT promoter firefly luciferase reporter (activity 0% = vehicle and -100% = no light), 24 h; series mostly up to 57.5 µM; activity change, negative = inhibition: at the top concentration
Procedure, shortened: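 Luminescence was read after Dual-Glo reagent and a 10 min room-temperature incubation. Values were normalized to vehicle (0% activity) and zero RLU (-100% activity). Reporter HEK293 cells had been exposed to compounds (up to 57.5 uM final) for 24 h.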

Activity change, negative = inhibition, inactive:
CCOc1ccc(NC(=O)CC2C(=O)N(c3ccccc3)C(=O)N2C2CCCC2)cc1 (stereo not given) -16.8%
Cc1cccc(N2CCN(C(=O)c3cnn(-c4ccc(F)cc4F)c3C3CCN(C(=O)OC(C)(C)C)CC3)CC2)c1C -18.3%
Cc1ccc(CNC(=O)Cn2nc(N3CCN(c4ccccc4)CC3)ccc2=O)cc1 -23.1%
COc1ccc(-n2c(SCC(=O)NCc3ccco3)nc3c([nH]c4ccccc43)c2=O)cc1 -16.9%
CCOc1ccccc1NC(=O)c1cc2cc3cc(C)ccc3nc2s1 -8.63%
CCOC(=O)c1cc2c(=O)n3ccccc3nc2n(Cc2ccco2)c1=NC(=O)c1cccc(C)c1 -21.1%
CCCNC(=O)CSc1c2c(nc3ccc(Cl)cc13)CCCC2 -9.52%
CCCn1c2ccccc2c2cnn(CC(=O)N(CC)c3cc(C)ccc3C)c(=O)c21 -27.4%
Cc1ccc(NC(=O)CSc2nc3ccccc3c(=O)n2CCC(=O)NC2CCCCC2)cc1C -8.25%
Cc1cccc(N2CCN(C(=O)C3CCN(S(=O)(=O)c4c(C)noc4/C=C/c4ccccc4F)CC3)CC2C)c1 (stereo not given) -19.7%
Cc1ccc2oc(=O)c3cnn(CC(=O)N4CCN(c5ccccc5F)CC4)c3c2c1 2.1%
Cc1ccc(C2C=C(c3ccccc3)Nc3nc(NS(=O)(=O)c4ccc(C)cc4)nn32)cc1 (stereo not given) -3.16%
Cc1cc(=O)n(Cc2ccccc2)c2c1c(C)nn2-c1ccccc1 8.89%
Cc1nc2c3ccccc3nc(NNC(=O)CCC(=O)N3CCN(c4cc(Cl)ccc4C)CC3)n2n1 -11.5%
COc1cccc(NC(=O)c2sc3nc(C)c(C(=O)Nc4ccc(C)cc4C)c(-c4ccco4)c3c2N)c1 -12.5%
COc1ccc(OCC(=O)Nc2cccc(C(=O)OCc3cc(=O)n4nc(C)sc4n3)c2)cc1 -9.31%
CCc1cccc(NC(=O)CSc2nc3ccccc3nc2N2CCCCC2)c1 -27.8%
CNC(=O)CCCN1C(=O)CCn2nc(-c3cn(C)c4ccccc34)cc21 -11.8%
COCc1cc(C)nc2sc(C(=O)Nc3ccc(C(C)=O)cc3)c(N)c12 44.4%
CC(=Cc1ccccc1)C=C1SC(=S)N(CC(=O)O)C1=O 11.2%
CCC(=O)N1CCc2cc(CNS(=O)(=O)c3ccc(C(C)C)cc3)ccc21 -24.1%
COC(=O)c1ccc2c(=O)n(CCCCCC(=O)N3CCN(c4cc(C)ccc4C)CC3)c(=O)[nH]c2c1 17.8%
CCOC(=O)c1c(NC(=O)/C=C/c2ccc(OCC)cc2)sc(C(C)=O)c1C -3.1%
COc1cc2nc(NCCc3ccccc3)n3nc(-c4cccnc4)nc3c2cc1OC -2.13%
COc1cc(NC(=O)CCc2c(C)nc3c(-c4ccc(F)cc4)c(C)nn3c2C)cc(OC)c1OC -2.04%
